The text below walks through data of US20260234269A1 (TRUEBINDING, published 2026).

The assay has as its target T1, HA-tagged human TIM-3 expressed in 293T cells (human, UniProt Q8TDQ0 22-301).
T1 construct: In cell lysate; also called HA-tagged hTIM-3; hTIM-3; not shown: HA tag
T1 sequence: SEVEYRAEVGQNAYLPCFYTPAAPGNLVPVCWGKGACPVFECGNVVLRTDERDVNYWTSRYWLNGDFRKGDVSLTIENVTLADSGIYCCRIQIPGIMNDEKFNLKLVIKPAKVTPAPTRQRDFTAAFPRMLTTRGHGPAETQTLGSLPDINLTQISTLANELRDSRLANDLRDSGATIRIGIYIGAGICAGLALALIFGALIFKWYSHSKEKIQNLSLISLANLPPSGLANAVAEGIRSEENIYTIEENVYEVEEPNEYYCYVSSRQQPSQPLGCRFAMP
Put plainly: co-IP, anti-Flag beads, co-transfected 293T lysate, anti-HA blot.

B1: Flag-tagged human Gal3 expressed in 293T cells (ligand)
chain: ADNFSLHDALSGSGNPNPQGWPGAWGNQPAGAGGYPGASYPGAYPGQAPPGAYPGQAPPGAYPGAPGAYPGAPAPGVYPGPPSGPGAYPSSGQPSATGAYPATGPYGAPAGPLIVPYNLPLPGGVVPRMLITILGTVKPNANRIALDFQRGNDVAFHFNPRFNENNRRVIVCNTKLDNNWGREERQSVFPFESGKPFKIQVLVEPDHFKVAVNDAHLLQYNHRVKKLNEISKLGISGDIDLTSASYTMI
notes: In cell lysates (co-IP, pull-down); also called Flag-tagged Gal3; Flag-human Gal3; not shown: Flag tag
Turning to B1, the binding result is given as “binds”.
